# The source gives no read counts; variants with many changes may rest on few reads.
# B1: LINE1-mini (parent)
# chain: GGCAGAGCUCAACACAGCGUGGCAAAGUGGCUGUGGCUAGACUGCC
# Variants of: B1
# Assay: self-cleavage, relative activity (ratio to wild type); higher = more cleavage; in vitro, sequencing; the parent is a self-cleaving ribozyme
row,Variant,self-cleavage
1,U9A A16C G17U U20G C23A C45A,0.19
2,G5A A26C G44U,0.1
3,G2U A26G U32G G33A,0.01
4,C3U G19U U20C,0.35
5,C23G G36A C42A C46U,0.33
6,A14G G22U A25C U34G,0.19
7,C8A G21U U34G A39C,0.04
8,A14U A26G G30U C31A,0.03
9,A6G C18U C46A,0.16
10,G5A U20A U34A A41U,0.4
11,G2C G30U C37G,0.01
12,G5U C13A G40A,0.1
13,G2U C3U A16U A24C,0.03
14,A6G C18G G33C A41U,0.08
15,C18U U20A G29U,1.09
16,A11G C31U G35C,0.03
17,A11G C15G G40C,0.01
18,C10A A12G C13U G19A G44U,0.02
19,G5U C10A G27U U32C U43C G44C C46A,0.02
20,U32C U34A G36A,0.04
21,G5A C10G A11U A16C A26C G40A,0.02
22,C8A G33U G36A,0.4
23,G1C G19C G27A,0.06
24,A16C G27C C42G,0.05

row,Variant,self-cleavage
1,G17C G33C C37G,0.03
2,C3U A6U C23G,0.15
3,G1C A6U C23A,0.05
4,U9G G21A G22A C23U,0.1
5,G7U C10U G17A,0.04
6,A11G C15G C23A G27A U38C G40U,0
7,A14U C15A U38A G40U,0.02
8,A16U G19C G44U C46A,0.08
9,A11C C23G A39U,0.02
10,G2U G5C A12C G22A A25G C37G,0
11,G1U A14G C18U G30A,0.18
12,G17U A39U C45A,0.05
13,A4G C13G G29U C37U G44A,0.02
14,G5A U9G A11C A24U,0.02
15,G2A C3G A4U C31A G33C G35A,0.1
16,G2C G5C C18A G35C,0.02
17,G22C U28G C42G,0.03
18,A16U C18A G30C C45U C46A,0.02
19,A6G U9G A25U C45G,0.04
20,A14U G17U G33C A41C G44A C45G,0
21,G2C C3A C18U,0.09
22,G1A C10G G19A,0.2
23,A4G G21U U34C,0.35
24,C10A A11C G33U,0.02

row,Variant,self-cleavage
1,C15A G17U C18G G29A,0.04
2,G17C G21C G22A A26U,0.41
3,A11C C15A C31A,0.03
4,C8U G44C C46A,0.13
5,G2C U28C A41C,0.01
6,G7U G21U U32G,0.19
7,A24G G29A G30C C46U,0.68
8,U9G C10A G33A,0
9,C10U C23A A24C G30C,1.01
10,A12G U20C G21U U38G G40U,0.01
11,C8U C13A C37A,0.18
12,A11G A12C A16C,0.02
13,G2C A11U U32A,0.02
14,U20A C42G C46U,0
15,U9A C13G U20A,0.08
16,A26U G27A G30C,0.9
17,G1C C31U C42U U43A,0
18,C10A A12G C23U,0.02
19,U9A G22A A26U G29C,0.05
20,G5C A11U G36A U43G,0
21,G1U C18G G21U A24U,0.47
22,C3A U9A G27C A39U G40U,0.01
23,G2A G5U G19C A41C,0.06
24,G7C U28A C31U C42U,0.06

row,Variant,self-cleavage
1,G2U C3A G40U,0.08
2,G7U G21U C46G,0.03
3,G17U G21U G44A,0.02
4,G2A C3A G7C C18U A26U U38G,1.74
5,C3G U43G C45U,0.02
6,U9G G17U U32A C42U,0.03
7,A11U A12C G19U,0.02
8,A4U C18A U28G U34A C42G,0.01
9,G2U G7A C37A C45A,0.05
10,G1A A4C U28A U38G,0.03
11,C13G A26G C31U C42A,0.05
12,G1U C3A C8G C23A G29A U32A,0.17
13,C13A C15G G30C U38G,0.01
14,A14G G22C G33A,0.03
15,A12U C13U C18A A26G U43C,0.02
16,G5U A25U G27C,0.01
17,A12C C13U C23A G29A A41G,0.01
18,A16C A24C G33U G40A,0.05
19,A4U G7C C10A A14C C31G,0.04
20,A12U U20C C45G,0.01
21,G5U C10A A11G G40U C42A,0.01
22,G1C C18A C23U G35U,0
23,C3U A11G C23A U34C,0.01
24,G5C C8A U43C,0.04

row,Variant,self-cleavage
1,A11U C23A G35U U43C,0.01
2,G19A G21U C42U,0.06
3,A14G C18G C45U,0.16
4,G5C C8G U20A C23G A26C A39G,0.29
5,G2C G21A A25G C31U,0.03
6,G2A A4C G19U C23G G29A G30C C31A,0.03
7,G19U C31G G35U,0.04
8,A11C A24C G33C,0.01
9,A6C G21U G33U,0.03
10,A4U G17U U20A,0.05
11,G1A A4C G29C U43A C45U,0.02
12,A12U A16U A26C G30A,0.02
13,C8A C18A G21A C45G C46U,0.36
14,G1A G2U C3A G17C G29A G30A U32A G35A,0.32
15,G1A C8A A24U,0.63
16,A24C C31U G33U,1.02
17,C8A C23G A24C,0.34
18,U9A U20G G40U,0.12
19,A6U C13G C45A,0.22
20,C10A A12C A25C,0.04
21,A25G G27A U38C,0.01
22,G1U G7U G27U C31A A41C,0.03
23,A4U U34C U38A A41U,0.08
24,A4U A11C A16G G19U G27A G29U,0

row,Variant,self-cleavage
1,A11C G17A G22C C23U A24C A26C C37G,0.02
2,G2U C18A C23G,0.02
3,G40U A41U C45G,0.54
4,C10A G19C G33U C45A,0
5,G19C U28A G40A,0.02
6,G2A G5A G17A,0.21
7,A6C A12C C15G C18G,0.02
8,C8A G27A G33A,0.07
9,U20G G30U G44C,0.07
10,C3A U20A A25U,0.29
11,A6U G7C C18A U20G G22A G35A C37U A39G,0.01
12,G19C C23U G40A,0.02
13,G7A A16C U28A C46A,0.11
14,A4G C18G U43A,0.16
15,C3A A6U A14C G21A,0.12
16,G7U U9C G21C C31U,0.03
17,G17C C31U A39G G44U,0.03
18,G1A C15U G30U,0.13
19,G19A U20A G22C G29U A41C,0.02
20,C10U C37U U43G,0
21,U9G A24U G44U,0.05
22,G2U A11C G17U G19A G36U,0.05
23,C3A G19A U34A A41U,0.02
24,G2A G7C C46A,0.17

row,Variant,self-cleavage
1,G2U A6C G7U C18A A25G G35C,0.16
2,A4U G7C C13U,0.11
3,C10A U20A G22U,0
4,G7C A16G C18U C23G,0.02
5,C18U G44U C45A C46A,0.08
6,G2C G5U U34A,0.04
7,G2C G27A G29C,0.1
8,A16C U20G U28A,0.06
9,A4G A14G G44C,0.1
10,C3G G5A A11U G19U A24C,0.01
11,C3A C8A C13A G21A G40U,1.89
12,U28C G29U C31G G33A U34G G36A G44U,0.15
13,U9G A12U G17A C46A,0.07
14,C15U C18G G21C,0.46
15,G21C G36C A39C G44A C45A,0.03
16,G1A U20G U32A G36C C42A,0.04
17,C13A G22A C23A A25G U28C G33C,0
18,G1C C23U C31G C37G,0.02
19,C3A G33U C46A,0
20,U34C C37A C42A,0.1
21,G2U C18A U20C,0
22,C15U G17U U34A C42U,0.19
23,G1C C10U G19A A39U A41U G44U,0.02

# Source: the RNAGym collection of RNA variant scans (doi:10.7554/elife.90254)
